# Measurements published in the supplement of paper PMC8728848.
# Some of the results follow.
# B1: CML1 (Coprinopsis cinerea) (protein)
# chain: MAIFHTGSELFIITRGPGKLTLLTWGGLNNLRSVIGAIPTENTGVTKWAVSFSHNYTRFSFIWEGQGEACYQIGNGLTRSPVGRSWSSSSTIHWGSSTVITEDVTSVVPGAVNRDKVTTAYALPDNL
# How the values were obtained:
# Assay in all cases: glycan array binding signal (z-score within array); higher = stronger binding
# Conditions in all cases: glycan notation: IUPAC condensed, linker removed
# [1] = molecular target: Neu5Ac(a2-3)Gal(b1-3)GlcNAc(b1-6)GalNAc
# In short: (§1)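 The Consortium for Functional Glycomics database supplied 3228 glycan arrays, of which those lacking an available protein sequence were dropped. The binding signal, a within-array Z-score, was averaged across arrays of the same protein sequence and across linkers. Negative scores can be read as non-binding.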
# [2] = molecular target: Neu5Ac(a2-3)Gal(b1-3)GlcNAc6S
# In short: as §1
# [3] = molecular target: Neu5Ac(a2-3)Gal(b1-3)[Fuc(a1-4)]GlcNAc
# In short: as §1
# [4] = molecular target: Neu5Ac(a2-3)Gal(b1-3)[Fuc(a1-4)]GlcNAc(b1-3)Gal(b1-3)[Fuc(a1-4)]GlcNAc
# In short: as §1
# [5] = molecular target: Neu5Ac(a2-3)Gal(b1-3)[Fuc(a1-4)]GlcNAc(b1-3)Gal(b1-4)[Fuc(a1-3)]GlcNAc
# In short: as §1
# [6] = molecular target: Neu5Ac(a2-3)Gal(b1-3)[GlcNAc(b1-6)]GalNAc
# In short: as §1
# [7] = molecular target: Neu5Ac(a2-3)Gal(b1-3)[Neu5Ac(a2-6)]GalNAc
# In short: as §1
# [8] = molecular target: Neu5Ac(a2-3)Gal(b1-3)[Neu5Ac(a2-6)]GlcNAc(b1-3)[Fuc(a1-3)[Gal(b1-4)]GlcNAc(b1-6)]Gal(b1-4)Glc
# In short: as §1
# [9] = molecular target: Neu5Ac(a2-3)Gal(b1-3)]Neu5Ac(a2-3)Gal(b1-4)]GlcNAc
# In short: as §1
# [10] = molecular target: Neu5Ac(a2-3)Gal(b1-4)Glc
# In short: as §1
# [11] = molecular target: Neu5Ac(a2-3)Gal(b1-4)GlcNAc
# In short: as §1
# [12] = molecular target: Neu5Ac(a2-3)Gal(b1-4)GlcNAc(b1-2)Man
# In short: as §1
# [13] = molecular target: Neu5Ac(a2-3)Gal(b1-4)GlcNAc(b1-2)Man(a1-3)[GlcNAc(b1-4)][Neu5Ac(a2-3)Gal(b1-4)GlcNAc(b1-2)Man(a1-6)]Man(b1-4)GlcNAc(b1-4)GlcNAc
# In short: as §1
# [14] = molecular target: Neu5Ac(a2-3)Gal(b1-4)GlcNAc(b1-2)Man(a1-3)[Neu5Ac(a2-3)Gal(b1-4)GlcNAc(b1-2)Man(a1-6)]Man(b1-4)GlcNAc(b1-4)GlcNAc
# In short: as §1
# [15] = molecular target: Neu5Ac(a2-3)Gal(b1-4)GlcNAc(b1-2)Man(a1-3)[Neu5Ac(a2-3)Gal(b1-4)GlcNAc(b1-2)Man(a1-6)]Man(b1-4)GlcNAc(b1-4)[Fuc(a1-6)]GlcNAc
# In short: as §1
# [16] = molecular target: Neu5Ac(a2-3)Gal(b1-4)GlcNAc(b1-2)Man(a1-3)[Neu5Ac(a2-6)Gal(b1-4)GlcNAc(b1-2)Man(a1-6)]Man(b1-4)GlcNAc(b1-4)GlcNAc
# In short: as §1
# [17] = molecular target: Neu5Ac(a2-3)Gal(b1-4)GlcNAc(b1-2)[Neu5Ac(a2-3)Gal(b1-4)GlcNAc(b1-4)]Man(a1-3)[GlcNAc(b1-4)][Neu5Ac(a2-3)Gal(b1-4)GlcNAc(b1-2)[Neu5Ac(a2-3)Gal(b1-4)GlcNAc(b1-6)]Man(a1-6)]Man(b1-4)GlcNAc(b1-4)GlcNAc
# In short: as §1
# [18] = molecular target: Neu5Ac(a2-3)Gal(b1-4)GlcNAc(b1-2)[Neu5Ac(a2-3)Gal(b1-4)GlcNAc(b1-4)]Man(a1-3)[GlcNAc(b1-4)][Neu5Ac(a2-3)Gal(b1-4)GlcNAc(b1-4)Man(a1-6)]Man(b1-4)GlcNAc(b1-4)GlcNAc
# In short: as §1
# [19] = molecular target: Neu5Ac(a2-3)Gal(b1-4)GlcNAc(b1-2)[Neu5Ac(a2-3)Gal(b1-4)GlcNAc(b1-6)]Man(a1-6)[Neu5Ac(a2-3)Gal(b1-4)GlcNAc(b1-2)Man(a1-3)][GlcNAc(b1-4)]Man(b1-4)GlcNAc(b1-4)GlcNAc
# In short: as §1
# [20] = molecular target: Neu5Ac(a2-3)Gal(b1-4)GlcNAc(b1-3)Gal
# In short: as §1
# [21] = molecular target: Neu5Ac(a2-3)Gal(b1-4)GlcNAc(b1-3)Gal(b1-3)GlcNAc
# In short: as §1
# [22] = molecular target: Neu5Ac(a2-3)Gal(b1-4)GlcNAc(b1-3)Gal(b1-4)GlcNAc
# In short: as §1
# [23] = molecular target: Neu5Ac(a2-3)Gal(b1-4)GlcNAc(b1-3)Gal(b1-4)GlcNAc(b1-2)Man(a1-3)[Neu5Ac(a2-3)Gal(b1-4)GlcNAc(b1-3)Gal(b1-4)GlcNAc(b1-2)Man(a1-6)]Man(b1-4)GlcNAc(b1-4)GlcNAc
# In short: as §1
# [24] = molecular target: Neu5Ac(a2-3)Gal(b1-4)GlcNAc(b1-3)Gal(b1-4)GlcNAc(b1-3)Gal(b1-4)GlcNAc
# In short: as §1
# [25] = molecular target: Neu5Ac(a2-3)Gal(b1-4)GlcNAc(b1-3)Gal(b1-4)GlcNAc(b1-3)Gal(b1-4)GlcNAc(b1-2)Man(a1-3)[Neu5Ac(a2-3)Gal(b1-4)GlcNAc(b1-3)Gal(b1-4)GlcNAc(b1-3)Gal(b1-4)GlcNAc(b1-2)Man(a1-6)]GalNAc
# In short: as §1
# [26] = molecular target: Neu5Ac(a2-3)Gal(b1-4)GlcNAc(b1-3)Gal(b1-4)GlcNAc(b1-3)GalNAc
# In short: as §1
# [27] = molecular target: Neu5Ac(a2-3)Gal(b1-4)GlcNAc(b1-3)Gal(b1-4)GlcNAc(b1-3)[Neu5Ac(a2-3)Gal(b1-4)GlcNAc(b1-3)Gal(b1-4)GlcNAc(b1-6)]GalNAc
# In short: as §1
# [28] = molecular target: Neu5Ac(a2-3)Gal(b1-4)GlcNAc(b1-3)Gal(b1-4)GlcNAc(b1-6)[Gal(b1-3)]GalNAc
# In short: as §1
# [29] = molecular target: Neu5Ac(a2-3)Gal(b1-4)GlcNAc(b1-3)Gal(b1-4)[Fuc(a1-3)]GlcNAc
# In short: as §1
# [30] = molecular target: Neu5Ac(a2-3)Gal(b1-4)GlcNAc(b1-3)GalNAc
# In short: as §1
# [31] = molecular target: Neu5Ac(a2-3)Gal(b1-4)GlcNAc(b1-3)[Neu5Ac(a2-3)Gal(b1-4)GlcNAc(b1-6)]GalNAc
# In short: as §1
# [32] = molecular target: Neu5Ac(a2-3)Gal(b1-4)GlcNAc(b1-6)GalNAc
# In short: as §1
# [33] = molecular target: Neu5Ac(a2-3)Gal(b1-4)GlcNAc(b1-6)[Gal(b1-3)]GalNAc
# In short: as §1
# [34] = molecular target: Neu5Ac(a2-3)Gal(b1-4)GlcNAc(b1-6)[Neu5Ac(a2-3)Gal(b1-3)]GalNAc
# In short: as §1
# [35] = molecular target: Neu5Ac(a2-3)Gal(b1-4)GlcNAc6S
# In short: as §1
# [36] = molecular target: Neu5Ac(a2-3)Gal(b1-4)[Fuc(a1-3)]GlcNAc
# In short: as §1
# [37] = molecular target: Neu5Ac(a2-3)Gal(b1-4)[Fuc(a1-3)]GlcNAc(b1-2)Man
# In short: as §1
# [38] = molecular target: Neu5Ac(a2-3)Gal(b1-4)[Fuc(a1-3)]GlcNAc(b1-3)Gal
# In short: as §1
# [39] = molecular target: Neu5Ac(a2-3)Gal(b1-4)[Fuc(a1-3)]GlcNAc(b1-3)Gal(b1-4)GlcNAc
# In short: as §1
# [40] = molecular target: Neu5Ac(a2-3)Gal(b1-4)[Fuc(a1-3)]GlcNAc(b1-3)Gal(b1-4)[Fuc(a1-3)]GlcNAc(b1-3)Gal(b1-4)[Fuc(a1-3)]GlcNAc
# In short: as §1
# [41] = molecular target: Neu5Ac(a2-3)Gal(b1-4)[Fuc(a1-3)]GlcNAc(b1-3)GalNAc
# In short: as §1
# [42] = molecular target: Neu5Ac(a2-3)Gal(b1-4)[Fuc(a1-3)]GlcNAc(b1-6)[Gal(b1-3)]GalNAc
# In short: as §1
# [43] = molecular target: Neu5Ac(a2-3)Gal(b1-4)[Fuc(a1-3)]GlcNAc(b1-6)[Neu5Ac(a2-3)Gal(b1-3)]GalNAc
# In short: as §1
# [44] = molecular target: Neu5Ac(a2-3)Gal(b1-4)[Fuc(a1-3)]GlcNAc6S
# In short: as §1
# [45] = molecular target: Neu5Ac(a2-3)Gal6S(b1-4)GlcNAc
# In short: as §1
binder,measurement,setting,value
B1,glycan array binding signal (z-score),[1],-0.325
same,glycan array binding signal (z-score),[2],-0.32
same,glycan array binding signal (z-score),[3],4.64
same,glycan array binding signal (z-score),[4],2.76
same,glycan array binding signal (z-score),[5],1.77
same,glycan array binding signal (z-score),[6],-0.341
same,glycan array binding signal (z-score),[7],-0.327
same,glycan array binding signal (z-score),[8],-0.293
same,glycan array binding signal (z-score),[9],-0.317
same,glycan array binding signal (z-score),[10],-0.34
same,glycan array binding signal (z-score),[11],-0.328
same,glycan array binding signal (z-score),[12],-0.333
same,glycan array binding signal (z-score),[13],-0.337
same,glycan array binding signal (z-score),[14],-0.334
same,glycan array binding signal (z-score),[15],-0.336
same,glycan array binding signal (z-score),[16],-0.319
same,glycan array binding signal (z-score),[17],-0.359
same,glycan array binding signal (z-score),[18],-0.332
same,glycan array binding signal (z-score),[19],-0.332
same,glycan array binding signal (z-score),[20],-0.3
same,glycan array binding signal (z-score),[21],-0.334
same,glycan array binding signal (z-score),[22],-0.355
same,glycan array binding signal (z-score),[23],-0.331
same,glycan array binding signal (z-score),[24],-0.349
same,glycan array binding signal (z-score),[25],-0.319
same,glycan array binding signal (z-score),[26],-0.342
same,glycan array binding signal (z-score),[27],-0.28
same,glycan array binding signal (z-score),[28],-0.324
same,glycan array binding signal (z-score),[29],-0.341
same,glycan array binding signal (z-score),[30],-0.334
same,glycan array binding signal (z-score),[31],-0.315
same,glycan array binding signal (z-score),[32],-0.368
same,glycan array binding signal (z-score),[33],-0.313
same,glycan array binding signal (z-score),[34],-0.364
same,glycan array binding signal (z-score),[35],-0.324
same,glycan array binding signal (z-score),[36],2.61
same,glycan array binding signal (z-score),[37],3.13
same,glycan array binding signal (z-score),[38],4.46
same,glycan array binding signal (z-score),[39],2.41
same,glycan array binding signal (z-score),[40],1.8
same,glycan array binding signal (z-score),[41],-0.149
same,glycan array binding signal (z-score),[42],-0.178
same,glycan array binding signal (z-score),[43],-0.119
same,glycan array binding signal (z-score),[44],4.04
same,glycan array binding signal (z-score),[45],6.01
